Test results from PubChem BioAssay AID1240 (Sanford-Burnham Center for Chemical Genomics, 2008).
Screen size: about 50,000 compounds; about 800 (1.6%) showed an effect of 50% or more. The list shows a part of the results.

molecular target: Bcl-2-like protein 10 (Homo sapiens) (UniProt Q9HD36); assay: TR3 peptide-Bcl-B binding displacers, biochemical primary FP assay, phenotype converters (AID 1240); details: GST-Bcl-B / FITC-TR3 peptide fluorescence polarization; stronger effect = higher value; compound at 3.75 mg/L;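 also: 0% = Bcl-B with tracer peptide and DMSO and 100% = tracer peptide lacking Bcl-B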
Sequence of UniProt Q9HD36 (Q9HD36 whole entry, looked up): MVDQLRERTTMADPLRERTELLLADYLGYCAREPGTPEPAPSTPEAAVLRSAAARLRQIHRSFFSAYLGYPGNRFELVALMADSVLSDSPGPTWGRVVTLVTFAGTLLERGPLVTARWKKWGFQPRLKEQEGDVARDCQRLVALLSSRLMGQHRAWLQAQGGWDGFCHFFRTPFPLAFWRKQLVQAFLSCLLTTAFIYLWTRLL

SMILES | displacement [%]
COc1ccc(C(=O)/C=C/Nc2ccc(S(=O)(=O)N=C(N)N)cc2)cc1OC | 15.4
Cc1ccc(N(CC(=O)Nc2c(C)n(C)n(-c3ccccc3)c2=O)S(=O)(=O)c2ccccc2)cc1 | 10.7
CCOc1ccccc1NC(=O)COc1cccc(Cl)c1 | -9.3
CCN1C(=O)/C(=C/c2c(NCCCn3ccnc3)nc3c(C)cccn3c2=O)SC1=S | 2.9
CC1=C(C(=O)Nc2ccc(Cl)cc2)C(c2ccc(C)cc2)NC(=S)N1 (stereo not given) | -6.2
O=[N+]([O-])c1ccc(-c2csc3[n+]2CCS3)cc1 | -23.2
O=C(Nc1cccc(-c2nc3ccccc3s2)c1)c1ccc(S(=O)(=O)N2CCCC2)cc1 | 5.3
COc1cc(NC(=O)C(c2ccccc2)c2ccccc2)cc(OC)c1 | 10.7
O=C(CSc1nc2ccccc2[nH]1)N/N=C/c1ccccc1F | -2.6
CCOc1cccc(C(=O)Nc2c(C)ccc3nsnc23)c1 | 4.5
CCOC(=O)C(=CNc1ccccc1OCC)C(=O)OCC | 2.7
CC(=O)C1=C(O)CC(C)(C)CC1=NCCc1ccccc1 | -11.2
CCOc1ccc(N2C(=O)NC(=O)/C(=C/c3cccc(OC)c3)C2=O)cc1 | 13
CS(=O)(=O)Nc1ccc(S(=O)(=O)N2CCOCC2)cc1 | 8.4
CC1=C(C(=O)Nc2ccc(Br)cc2)C(c2ccccc2Br)NC(=O)N1 (stereo not given) | -2.5
Cn1c(=O)c2c(nc(NCCc3ccccc3)n2C)n(C)c1=O | -7.5
Cc1c(C#N)c(N)c(C(=O)c2ccc(Br)cc2)n1-c1ccc(Br)cc1 | 0.2
COc1cc2ccccc2cc1C(=O)Nc1ccc(S(=O)(=O)Nc2nccs2)cc1 | 2.2
CCCOc1ccc(C(=O)NCc2ccccc2)cc1 | 11
NC(=O)c1ccccc1N=Cc1cccc2ccccc12 | 2.9
Cc1ccn2c(NC(=O)c3ccccc3)c(-c3cccs3)nc2c1 | 8.5
CCN(CC)CCNc1nc2nonc2nc1NCCN(CC)CC | -0.5
CC(C)CNC(=O)c1ccccc1NC(=O)Cc1ccc(Cl)cc1 | 0.4
Cc1sc(NC(=O)c2ccc(-c3ccccc3)cc2)c(C(N)=O)c1C | -5.3
Cc1ccnc(NC(=O)CSc2nc3ccccc3s2)c1 | -8.4
O=C1NC(=O)N(c2ccc(Cl)cc2)C(=O)/C1=C/c1ccc(-c2ccc(Cl)c(C(=O)O)c2)o1 | 72.5
O=C(CN1C(=O)c2ccccc2C1=O)N1CCN(c2ccccc2Cl)CC1 | 6.9
COc1ccc(C(O)(C(=O)Nc2ccccn2)c2ccc(OC)cc2)cc1 | -27.8
Cc1cc(NC(=O)c2ccc(Cl)cc2)ccc1-c1cc2ccccc2oc1=O | 14.8
COc1ccc(C(=O)Nc2ccccc2C(=O)O)cc1[N+](=O)[O-] | -10.9
